Test results from the supplement of paper PMC5499739.
The full ranking holds about 16,000 sequences; the median of “Z-score” is about -0.37, and the highest 2% start at about 3.2. This is one part of the list.

The sequences below were run on RBM10 RRM1-ZnF (GST-tagged construct) (assay: RNAcompete 7-mer binding Z-score; higher = stronger binding preference).
Procedure, shortened: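 A one-sided Z-score for enrichment, taken across the probes containing each heptamer motif, was assigned to every such motif. The RNA came from a designed pool of 241 399 sequences up to 41 nt (1.5 nmol), bound by 20 pmol of GST-tagged RBM10 constructs in 1 ml Hepes pH 7.8 buffer with glutathione Sepharose beads for 30 min at 4°C. Four 2-min washes at 4°C preceded identification of bound RNA by microarray hybridisation.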

Row | Sequence | RNAcompete 7-mer binding Z-score
1 | UCUAUUA | -0.685
2 | GCGUAGA | 0.335
3 | GUUCAUA | -0.506
4 | ACUCAAU | -0.763
5 | UAGUGAG | 0.917
6 | CGUGAUA | -0.00571
7 | UUGCCCC | -0.457
8 | UACAAUC | -0.659
9 | ACGUACA | -0.272
10 | GCACCCG | -0.379
11 | UUCAAUG | -0.321
12 | CGAAUUG | 0.0235
13 | AUGUUGC | -0.256
14 | ACGAAGU | -0.0382
15 | GAGGCCG | 0.0723
16 | UGGGGCA | 3.56
17 | AUGCUUU | -0.841
18 | UAAACCA | -0.578
19 | AUAAUUU | -0.756
20 | GUCGUAC | -0.243
21 | GCCGUGC | -0.402
22 | AACAAUC | -0.506
23 | GGGGGGA | 3.3

Row | Sequence | RNAcompete 7-mer binding Z-score
24 | AUUUGCA | -0.613
25 | AGCUACC | -0.649
26 | GGAUUAC | 0.719
27 | CUAUGGU | -0.116
28 | CUCUUCC | -0.818
29 | CUCUGGU | -0.672
30 | ACAAACU | -0.73
31 | UUCAGAU | -0.633
32 | ACAACAC | -0.327
33 | GUCGUUC | -0.412
34 | ACACCGG | 0.215
35 | GAUAUUA | -0.0317
36 | GGUCGCU | -0.0674
37 | ACUUCUU | -0.902
38 | AACUCCG | -0.623
39 | ACGCCCA | -0.72
40 | GCUGCUA | -0.314
41 | AGCUUGG | 0.631
42 | GAAACAC | -0.344
43 | GGUGGGC | 3.3
44 | AGUACCA | -0.344
45 | UGUGCCU | -0.295
46 | GUUUAUA | -0.311

Row | Sequence | RNAcompete 7-mer binding Z-score
47 | GCGCCUG | -0.37
48 | GGCCGUG | 0.586
49 | CCAGGCA | -0.305
50 | CCCAAGG | -0.022
51 | CCGCGUU | -0.808
52 | UUUAUGG | 0.303
53 | UUUGUUG | -0.142
54 | CGAAGCG | 0.319
55 | UCCUCCA | -0.607
56 | UGGGCUU | 1.32
57 | GGGUAGC | 2.73
58 | GCACUGG | 0.735
59 | ACGCGUA | -0.197
60 | ACAAGAC | -0.272
61 | AAGAAUG | 0.894
62 | AGGAACC | -0.139
63 | GACUUUG | -0.597
64 | AAAUGUA | 0.15
65 | GAUCCAA | -0.652
66 | AAUAGGG | 3.28
67 | GCAACAC | -0.532
68 | UAGGAUA | 2.03
69 | CAUGCGG | 0.222

Row | Sequence | RNAcompete 7-mer binding Z-score
70 | GGCCAUG | -0.0609
71 | CAUGUGA | 0.17
72 | UCAUGUU | -0.535
73 | AACGAAA | -0.262
74 | ACUCCAU | -0.724
75 | GCGUCAC | -0.0252
76 | GUAACCA | -0.256
77 | UGGGUGU | 3.53
78 | CCUCCAC | -0.685
79 | AGACUUA | -0.724
80 | AAGUCUC | -0.668
81 | AUUGGUU | 1
82 | UUUUUCC | -0.805
83 | AUCAGUU | -0.545
84 | CGCUCUA | -0.72
85 | UCCGGCU | -0.607
86 | UAGUAUG | 0.0918
87 | CCGUGCG | -0.21
88 | AGUCGUA | -0.145
89 | UAAGAAU | -0.0999
90 | CUUGCAU | -0.828
91 | GAGCUAU | -0.0999
92 | UGGUAAA | 1.13
